# In PubChem BioAssay AID463173 (ICCB-Longwood Screening Facility, Harvard Medical School, 2010):
# The whole screen tested about 52,000 compounds, of which about 1,700 (3.3%) were called active. Rule as the data show it: active = survival mostly below about 52% (no sharp cut-off); inactive = mostly above about 56%. This is one part of the list.
# System: Wild type
# Test: growth inhibition of S. aureus wild type versus tarO mutant, primary screen, teichoic acid synthesis inhibitors, RN4220, OD600 (AID 463173)
# Conditions: S. aureus RN4220 wild type/DeltatarO growth, OD600, 18 h, active compounds read low, screened at 18.75 µg/mL (by protocol)
row,Compound,survival
1,CC1CCN(CC(=O)Nc2ccc(F)cc2)CC1,inactive: 112%
2,CCc1ccc(C2c3c(-c4ccccc4O)n[nH]c3C(=O)N2Cc2cccnc2)cc1 (centres undefined),inactive: 71%
3,CCC(=O)N1c2ccc(S(=O)(=O)CCC(=O)Nc3ccc(OC)cc3OC)cc2CC1C (centres undefined),inactive: 89%
4,CCC(=O)N1CCc2cc(CNS(=O)(=O)c3ccc(CC(C)C)cc3)ccc21,inactive: 71%
5,CCN1CCN(c2ncc3c(n2)CCN(Cc2ccccc2C)C3)CC1,active: -3%
6,Cc1ccc(CS(=O)(=O)c2ncc(Cl)c(C(=O)Nc3nnc(C(C)C)s3)n2)cc1,inactive: 48%
7,COc1ccc(-c2nc(CS(=O)CC(=O)NCCc3ccc(Cl)cc3)c(C)o2)cc1OC (centres undefined),inactive: 80%
8,CCc1ccc(-n2nc(CO)c(C(=O)NC)n2)cc1,inactive: 81%
9,CC(C)CCNC(=O)C1CCN(C(=O)c2cc3sccc3n2Cc2ccc(Cl)cc2)CC1,inactive: 86%
10,CCCS(=O)(=O)N1CC(=O)N(c2ccc(C)c(Cl)c2)C(C)(C(=O)NC2CCCCCC2)C1 (centres undefined),inactive: 105%
11,COc1cc(CN(C(=O)c2ccccc2F)C2CCS(=O)(=O)C2)cc(OC)c1OC (centres undefined),inactive: 83%
12,Cc1cccc(N2CCN(C(=O)Cn3c(-c4cccs4)cc4ccccc43)CC2)c1C,inactive: 85%
13,CC(=O)OC1CC(C)N(C(=O)c2ccccc2)c2ccc(C)cc21 (centres undefined),inactive: 101%
14,Cc1ccc2c(CC(=O)Nc3ccc(S(=O)(=O)N4CCCCC4)cc3)coc2c1C,inactive: 98%
15,CN1C(=O)C2(c3ccccc31)N(c1cccc(C(F)(F)F)c1)C(=O)CS2(=O)=O (centres undefined),inactive: 54%
16,CCCCNC(=O)CCCN1C(=O)c2ccccc2Sc2ncccc21,inactive: 87%
17,Oc1c(C(c2ccc(F)cc2)N2CCN(Cc3ccccc3)CC2)sc2nc(-c3ccco3)nn12 (centres undefined),inactive: 89%
18,Cc1cccc(-c2nc3nc(C)cc(NC(C)c4ccccc4)n3n2)c1 (centres undefined),inactive: 88%
19,COc1ccc(C(=O)N(Cc2ccco2)Cc2ccc(C)o2)cc1,inactive: 83%
20,COc1ccc(NC(=O)C2CCCN(S(=O)(=O)c3c(C)[nH]c(=O)[nH]c3=O)C2)c(OC)c1 (centres undefined),inactive: 143%
21,O=C(NCc1ccc(F)cc1)C(=O)NCC(c1ccc2c(c1)OCO2)N1CCOCC1 (centres undefined),inactive: 88%
22,CNC(=O)c1c(NC(=O)/C=C/c2ccccc2)sc2c1CCC2,inactive: 76%
23,Cc1ccc2nc(-c3ccc(NC(=O)COc4ccc(Br)cc4Br)cc3)sc2c1,inactive: 124%

row,Compound,survival
1,COCCCNC(=O)c1cnc2sc(N3CCCCC3)nn2c1=O,inactive: 68%
2,COc1cc(NS(=O)(=O)c2ccc(NC(=O)c3ccc(Cl)cc3Cl)cc2)nc(OC)n1,inactive: 94%
3,CC(CCc1ccccc1)NC(=O)c1ccco1 (centres undefined),inactive: 123%
4,CCOc1ccc(NC(=O)Cn2nnc(-c3nc(-c4ccncc4)no3)c2N)cc1,inactive: 79%
5,Cc1nn2c(C)c(C(=O)NCCc3ccccc3)cnc2c1-c1ccccc1,inactive: 55%
6,CCOC(=O)c1ccc(NC(=O)CC(=O)Nc2ccc3nc4n(c(=O)c3c2)CCCCC4)cc1,inactive: 91%
7,Cc1ccccc1NC(=O)/C(C#N)=C/c1ccc(Cl)cc1Cl,inactive: 34%
8,CCc1ccc(NCc2cc3cc4c(cc3n(CC(=O)Nc3ccccc3C)c2=O)OCCO4)cc1,inactive: 66%
9,CCCOc1ccc(C(=O)Nc2cc3c(cc2N2CCCCC2)n(C)c(=O)n3C)cc1,inactive: 78%
10,COc1ccc(-c2nc3sc(CCNS(=O)(=O)c4ccccc4)c(C)n3n2)cc1,inactive: 57%
11,O=C(NCC1CCN(Cc2ccccc2F)CC1)Nc1ccc(F)c(Cl)c1,inactive: 73%
12,Cc1ccnc(NC(=O)COc2ccc(Cl)cc2Cl)n1,inactive: 118%
13,Cc1ccc2ncc3c(-c4ccc(F)cc4)nn(CC(=O)Nc4ccccc4C)c3c2c1,inactive: 78%
14,Cc1ccc(S(=O)(=O)Cc2nc(-c3ccc(C(=O)NCCCOC(C)C)cc3)oc2C)cc1,inactive: 75%
15,CC(C)c1ccc(N(CC(=O)O)S(=O)(=O)c2ccc3[nH]c(=O)c(=O)[nH]c3c2)cc1,inactive: 148%
16,Cc1ccc2oc(C(=O)Nc3ccc(S(=O)(=O)Nc4nccc(C)n4)cc3)cc(=O)c2c1,inactive: 86%
17,COc1ccc(Br)cc1CNC(=O)CN1C(=O)c2cccnc2Oc2ccc(C)cc21,inactive: 94%
18,CCN(CC)CCCNc1nc(C)nc2c1nnn2Cc1ccccc1,inactive: 108%
19,CSc1ncc2c(n1)-c1ccccc1N(Cc1ccccc1)S2(=O)=O,inactive: 78%
20,CSc1ccc(CCNC(=O)CCCn2c(=O)c3cccn3c3ccccc32)cc1,inactive: 46%
21,CCOCCCN=C1Sc2nc3cc4c(cc3cc2CN1CC1CCCO1)OCO4 (centres undefined),inactive: 111%
22,CCOc1ccc(C(=O)Nc2cc3c(cc2N2CCCC2)n(C)c(=O)c(=O)n3C)cc1OCC,inactive: 88%
23,O=C1c2[nH]nc(-c3ccc(F)cc3)c2C(c2ccccc2F)N1c1ccccc1 (centres undefined),active: 4%

row,Compound,survival
1,Cc1ccc2[nH]c3c(=O)n(CC(=O)Nc4ccc(Br)cc4C)ncc3c2c1,inactive: 57%
2,Cn1c(-c2ccccc2)nc2cc(N)ccc21,inactive: 105%
3,Fc1ccc(Nc2nc3ccccc3n3cnnc23)c(F)c1,inactive: 83%
4,COC(=O)CCC/C=C1/SCC(NC(=O)c2ccccc2)/C1=N/O (centres undefined),inactive: 91%
5,O=C(c1ccc(F)cc1)n1nc(-c2cccnc2)nc1NCc1ccccc1,inactive: 81%
6,COc1ccc(-n2ccnc(NCCc3ccccc3)c2=O)cc1OC,inactive: 66%
7,COc1cccc(C(=O)N(Cc2nc(-c3ccc(Cl)cc3)no2)C(C)C)c1OC,inactive: 46%
8,COc1ccc(NC(=O)c2nc(-c3ccc(C)cc3)n3c2CCCCC3)cc1,inactive: 62%
9,CCSc1nc2ccccc2c(OCc2ccccc2Cl)c1C(=O)OC,inactive: 75%
10,COc1ccc(Oc2nc3c(c(=O)n(Cc4ccc(Br)cc4)c(=O)n3C)n2C)cc1,inactive: 93%
11,CCOC(=O)C1=NN(c2ccccc2)C(=O)C1,inactive: 91%
12,Cc1ccc(N(CC(C)C)S(=O)(=O)c2nnc(NC(=O)C(C)C)s2)cc1,inactive: 84%
13,COc1ccccc1CNC(=O)COCc1cc(-c2cccs2)on1,inactive: 69%
14,CC(C)(C)c1ccc(C(=O)Nc2c(C(=O)c3ccc(F)cc3)oc3ccccc23)cc1,inactive: 73%
15,Cc1nc2nc(CNC(=O)c3cccc(F)c3)nn2c(C)c1CCC(=O)Nc1cccc(Cl)c1,inactive: 150%
16,Cc1nn(C(C)C(=O)Nc2ccccc2C(F)(F)F)c(=O)c2c1sc1ccccc12 (centres undefined),inactive: 106%
17,COc1ccc(Cl)cc1NC(=O)c1cnc2sc(N3CCOCC3)nn2c1=O,inactive: 74%
18,Cc1ccc(CNC(=O)c2cnc3c(-c4ccc(F)cc4)c(C)nn3c2C)o1,inactive: 78%
19,Cc1ccc2oc(-c3ccc(Cl)c(NC(=O)c4cc5ccccc5o4)c3)nc2c1,inactive: 66%
20,CN1CCN(CCNC(=O)c2cnn(-c3ccc(Cl)cc3)c2C2CCN(C(=O)OC(C)(C)C)CC2)CC1,inactive: 68%
21,CCOC(=O)c1c(NC(=O)c2nc3n(n2)C(C(F)F)CC(C)N3)sc2c1CCCC2 (centres undefined),inactive: 104%
22,CCN(C(=O)C1CCN(S(=O)(=O)c2c(C)noc2/C=C/c2ccc(C)cc2)CC1)c1cccc(C)c1,inactive: 77%
23,CCOc1ccc(-c2nonc2NC(=O)c2oc3ccc(CC)cc3c2C)cc1,inactive: 128%

row,Compound,survival
1,COc1ccc(NC(=O)CSc2nc3ccccc3c(=O)n2CCC(=O)NC2CCCCC2)c(OC)c1,inactive: 84%
2,CCC(=O)N1CCc2cc(S(=O)(=O)NC(Cc3ccccc3)C(=O)O)ccc21 (centres undefined),inactive: 19%
3,Cc1ccc(S(=O)(=O)Nc2ccc3nc(-c4cccc(Cl)c4)oc3c2)cc1,inactive: 29%
4,COc1ccc(CCNC(=O)C(C)n2nc(C)c3sc4ccccc4c3c2=O)c(OC)c1 (centres undefined),inactive: 73%
5,O=C(CCCCCn1c(=O)c2sccc2n(Cc2ccccc2Cl)c1=O)NCc1ccc2c(c1)OCO2,inactive: 93%
6,CCc1ccccc1Nc1nn2c(=O)c3ccc(C(=O)NC(C)C)cc3nc2s1,inactive: 83%
7,CCN(CCCNC(=O)c1cc2c(=O)n(C)c3ccccc3c2s1)c1ccccc1,inactive: 73%
8,COc1ccc(N2C(=O)C(C)C(Cc3ccc(C)cc3)C2=O)cc1 (centres undefined),inactive: 108%
9,COc1cccc(-c2cn3c(n2)sc2cc(C(=O)NC4CCCCC4)ccc23)c1,inactive: 85%
10,O=C(Cn1c(=O)n(Cc2ccco2)c(=O)c2oc3ccccc3c21)Nc1ccccc1,inactive: 61%
11,COc1ccc(N2Cc3ccccc3C2=O)cc1,inactive: 113%
12,CC(=O)Nc1ccc2nc(SCc3ccccc3C#N)sc2c1,inactive: 110%
13,COc1cc(NC(=O)C2CCN(c3cnccn3)CC2)cc(OC)c1,inactive: 83%
14,C#CCn1c(O)c(N=NC(=O)Cn2nnc(-c3ccccc3)n2)c2cc(Br)ccc21,inactive: 105%
15,COc1ccccc1N1CCN(C(=O)C2CCN(S(=O)(=O)c3cn(C)cn3)CC2)CC1,inactive: 64%
16,COc1ccccc1NC(=O)CN1C(=O)C(c2ccc(F)cc2)=NC12CCCCC2,inactive: 73%
17,CCOCCCNC(=O)c1ccc2c(=O)n(CCc3ccccc3)c(=O)[nH]c2c1,inactive: 79%
18,CCc1ccc2oc(-c3cc(NC(=O)c4cc(OC)c(OC)c(OC)c4)ccc3O)nc2c1,inactive: 83%
19,O=C(O)C(Cc1c[nH]c2ccccc12)Nc1ncnc2c1oc1ccccc12 (centres undefined),inactive: 101%
20,COc1cccc(N2CCN(C(=O)c3cnn(-c4ccccc4Cl)c3C3CCN(C(=O)OC(C)(C)C)CC3)CC2)c1,inactive: 121%
